These results are taken from the supplement of paper PMC10126150.

Sequences with one replicate were seen in a single cluster, so their values are uncertain.

The subject of this data set is ATP. The data set is described as follows: switch fluorescence ratio, 500 uM ATP over buffer (Cy3 cluster intensity, sum of 5 cycles each) (fold (ratio)); higher = stronger signal-on switching upon ATP binding; sequences stand for … in TCGTCGGCAGCGTCAGATGTGTATAAGAGACAGTTTTTTTTTTTTTTTTTTTTTTTTT…TC. The note with it: aptamer strand: ATP DNA aptamer (quencher-CACCTGGGGGAGTATTGCGGAGGAAGG + anchor), 100 nM annealed; ATP concentration: 500 uM; one replicate. The procedure, abridged: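 Exposure to 500 uM ATP lasted 15 min at 22 °C before imaging, and a selection-buffer image was taken beforehand, for Cy3-labelled switching-strand clusters on a modified Illumina MiSeq flow-cell annealed to 100 nM quencher-labelled ATP aptamer. Five buffer/ATP cycles were run with NaOH stripping and re-annealing between them. The fluorescence ratio per cluster is summed target-cycle over summed buffer-cycle Cy3 intensity, averaged per switch-domain sequence. Clusters outside 100-1000 RFU were excluded.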

Regarding GCCGCGCTAC, the switch fluorescence ratio is 4.01.
Consider GTGGAGGAGC, for which the switch fluorescence ratio stood at 1.
In the case of CTATTACCAG it was 1.02; in that of GGTTTCACCA, 1.
With GGGGAGATTG, the switch fluorescence ratio came out at 0.995.
For the sequence AGGGCCTTTT, the switch fluorescence ratio worked out at 1.1.
Consider TGGGTGGGCA, for which the switch fluorescence ratio turned out to be 1.02.
For CATAGGTTGG, the switch fluorescence ratio came out at 0.978.
The result for TAAGGGTCGA reads 1.01; that for TGAGGTCCTT, 1.05.
For the sequence TCGTTGTTA, the switch fluorescence ratio came to 0.959.
Regarding TGTGCCCACG, the switch fluorescence ratio stood at 1.01.
Regarding CTCGACCCCG, the switch fluorescence ratio was 1.02.
On to CAATCGTCAT, for which the switch fluorescence ratio is 1.
Consider CATCTTTAGG, for which the switch fluorescence ratio was found to be 1.02.
For AGTCTTGA, the switch fluorescence ratio is 1.02.
As for CACGACGGGT, the switch fluorescence ratio came out at 0.971.
The result for CCTCGGGAAT reads 6.19.
Regarding TGTATTTGGT, the switch fluorescence ratio was found to be 0.946.
Consider GCGTTTTTGC, for which the switch fluorescence ratio was found to be 1.03.
As for TCCCTACAGT, the switch fluorescence ratio is 1.05.
Turning to AACGTCTCGC, the switch fluorescence ratio turned out to be 0.985.
Take TGGAGTCTCT: the switch fluorescence ratio is 1.01.
The result for TTTCTTCGA reads 1.04.
On to CGTTGTCAGT, for which the switch fluorescence ratio was determined as 0.986.
Turning to TTCAATCGGG, the switch fluorescence ratio came out at 1.03.
As to TCGGCGTGGC, the switch fluorescence ratio was found to be 1.02.
For the sequence ACAAGACAC, the switch fluorescence ratio is 1.13.
For the sequence GTAGGGGCAA, the switch fluorescence ratio came out at 1.09.
In the case of TCTAGACTAT it was 0.961; in that of AGGGGACCTG, 0.988.
As for GAACCCCCCG, the switch fluorescence ratio worked out at 1.28.
On to CTGCGGTGTA, for which the switch fluorescence ratio was 0.97.
The result for CAAACGTCGC reads 1.05; that for GAATGATGTC, 1.1.
For the sequence ATTCATCGTT, the switch fluorescence ratio stood at 0.993.
Consider GCGTGCCCC, for which the switch fluorescence ratio was 1.03.
On to GATCTATCTG, for which the switch fluorescence ratio worked out at 0.983.
Take GTTCCTTTAT: the switch fluorescence ratio was 0.99.
Consider GCCATGACGC, for which the switch fluorescence ratio is 1.04.
In the case of TTGCCAAGTT it was 0.988; in that of ACTCTATATA, 1.08.
In the case of CTGCTGGCAG it was 0.998; in that of CGATCAAATC, 1.16; in that of CGCAACCAAA, 1.15.
AGATGATTTT: the switch fluorescence ratio turned out to be 0.978.
For GTATGGGAGG, the switch fluorescence ratio was determined as 0.994.
As for ATTGTCAAAG, the switch fluorescence ratio was 0.985.
For ACATGGTGTT, the switch fluorescence ratio was 1.05.
The result for GCGGCCTGTG reads 1.05; that for AATCATGACA, 1.02.
With TGCAGTAATG, the switch fluorescence ratio worked out at 0.997.
The result for TGTTGCGGTT reads 1.02; that for GCGCGGTTAG, 0.998.
The result for ACTATAAGGT reads 1.05; that for TCGATTTCGT, 0.996.
With GAGTAGCGCG, the switch fluorescence ratio was found to be 0.976.
AGGTGAAGCT: the switch fluorescence ratio came out at 1.07.
For GCATTGCGGT, the switch fluorescence ratio came out at 1.02.
As to TGACATTTTT, the switch fluorescence ratio stood at 0.967.
In the case of CTTAAAAGG, the switch fluorescence ratio was 1.
For TACTGTTTCA, the switch fluorescence ratio worked out at 0.998.
For TTTTTGTG, the switch fluorescence ratio worked out at 0.986.
In the case of CGTATATCGT it was 0.973.
In the case of GACAGTAAAT it was 1.1.
In the case of CGTACAAATC, the switch fluorescence ratio amounted to 1.13.
Consider TTTAGGTCCA, for which the switch fluorescence ratio worked out at 0.991.
